# The other results are listed elsewhere or left out.
# Key:
# Test in all cases: glycan array binding signal (z-score within array); higher = stronger binding
# Details in all cases: glycan notation: IUPAC condensed, linker removed
# [1] = biological target: Man(a1-2)Man(a1-2)Man(a1-3)Man
# Outline: (§1)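 Columns mapping to the same glycan were averaged after glycan names were converted to IUPAC-condensed notation. The data come from 3228 arrays in the Consortium for Functional Glycomics database, limited to those with an available protein sequence. Binding is reported as a within-array Z-score averaged across arrays of one protein sequence and across linkers.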
# [2] = biological target: Man(a1-2)Man(a1-2)Man(a1-6)[Man(a1-3)]Man
# Outline: as §1
# [3] = biological target: Man(a1-2)Man(a1-3)Man
# Outline: as §1
# [4] = biological target: Man(a1-2)Man(a1-3)[Man(a1-2)Man(a1-6)]Man
# Outline: as §1
# [5] = biological target: Man(a1-2)Man(a1-3)[Man(a1-2)Man(a1-6)]Man(a1-6)[Man(a1-2)Man(a1-2)Man(a1-3)]Man(b1-4)GlcNAc(b1-4)GlcNAc
# Outline: as §1
# [6] = biological target: Man(a1-2)Man(a1-3)[Man(a1-6)]Man(a1-6)[Man(a1-2)Man(a1-3)]Man(b1-4)GlcNAc(b1-4)GlcNAc
# Outline: as §1
# [7] = biological target: Man(a1-2)Man(a1-6)[Man(a1-3)]Man(a1-6)[Man(a1-2)Man(a1-2)Man(a1-3)]Man(b1-4)GlcNAc(b1-4)GlcNAc
# Outline: as §1
# [8] = biological target: Man(a1-3)[Man(a1-6)]Man
# Outline: as §1
# [9] = biological target: Man(a1-3)[Man(a1-6)]Man(a1-6)[Man(a1-2)Man(a1-3)]Man(b1-4)GlcNAc(b1-4)GlcNAc
# Outline: as §1
# [10] = biological target: Man(a1-3)[Man(a1-6)]Man(a1-6)[Man(a1-3)]Man(b1-4)GlcNAc(b1-4)GlcNAc
# Outline: as §1
# [11] = biological target: Man(a1-3)[Man(a1-6)]Man(b1-4)GlcNAc(b1-4)GlcNAc
# Outline: as §1
# [12] = biological target: Man(b1-4)GlcNAc
# Outline: as §1
# [13] = biological target: Neu5Ac(a2-3)Gal
# Outline: as §1
# [14] = biological target: Neu5Ac(a2-3)Gal(b1-3)GalNAc
# Outline: as §1
# [15] = biological target: Neu5Ac(a2-3)Gal(b1-3)GalNAc(b1-3)Gal(a1-4)Gal(b1-4)Glc
# Outline: as §1
# [16] = biological target: Neu5Ac(a2-3)Gal(b1-3)GalNAc(b1-3)Gal(b1-4)GlcNAc
# Outline: as §1
# [17] = biological target: Neu5Ac(a2-3)Gal(b1-3)GalNAc(b1-4)[Neu5Ac(a2-3)]Gal(b1-4)Glc
# Outline: as §1
# [18] = biological target: Neu5Ac(a2-3)Gal(b1-3)GalNAc6S
# Outline: as §1
# [19] = biological target: Neu5Ac(a2-3)Gal(b1-3)GlcNAc
# Outline: as §1
# [20] = biological target: Neu5Ac(a2-3)Gal(b1-3)GlcNAc6S
# Outline: as §1
# [21] = biological target: Neu5Ac(a2-3)Gal(b1-3)[Fuc(a1-4)]GlcNAc
# Outline: as §1
# [22] = biological target: Neu5Ac(a2-3)Gal(b1-3)[Fuc(a1-4)]GlcNAc(b1-3)Gal(b1-4)[Fuc(a1-3)]GlcNAc
# Outline: as §1
# [23] = biological target: Neu5Ac(a2-3)Gal(b1-3)[Neu5Ac(a2-3)Gal(b1-4)]GlcNAc
# Outline: as §1
# [24] = biological target: Neu5Ac(a2-3)Gal(b1-3)[Neu5Ac(a2-6)]GalNAc
# Outline: as §1
# [25] = biological target: Neu5Ac(a2-3)Gal(b1-4)Glc
# Outline: as §1
# [26] = biological target: Neu5Ac(a2-3)Gal(b1-4)GlcNAc
# Outline: as §1
# [27] = biological target: Neu5Ac(a2-3)Gal(b1-4)GlcNAc(b1-2)Man(a1-3)[Neu5Ac(a2-3)Gal(b1-4)GlcNAc(b1-2)Man(a1-6)]Man(b1-4)GlcNAc(b1-4)GlcNAc
# Outline: as §1
# [28] = biological target: Neu5Ac(a2-3)Gal(b1-4)GlcNAc(b1-3)Gal(b1-4)GlcNAc
# Outline: as §1
# [29] = biological target: Neu5Ac(a2-3)Gal(b1-4)GlcNAc(b1-3)Gal(b1-4)GlcNAc(b1-3)Gal(b1-4)GlcNAc
# Outline: as §1
# [30] = biological target: Neu5Ac(a2-3)Gal(b1-4)GlcNAc(b1-3)Gal(b1-4)[Fuc(a1-3)]GlcNAc
# Outline: as §1
# [31] = biological target: Neu5Ac(a2-3)Gal(b1-4)GlcNAc6S
# Outline: as §1
# [32] = biological target: Neu5Ac(a2-3)Gal(b1-4)[Fuc(a1-3)]GlcNAc
# Outline: as §1
# [33] = biological target: Neu5Ac(a2-3)Gal(b1-4)[Fuc(a1-3)]GlcNAc(b1-3)Gal
# Outline: as §1
# [34] = biological target: Neu5Ac(a2-3)Gal(b1-4)[Fuc(a1-3)]GlcNAc(b1-3)Gal(b1-4)GlcNAc
# Outline: as §1
# [35] = biological target: Neu5Ac(a2-3)Gal(b1-4)[Fuc(a1-3)]GlcNAc(b1-3)Gal(b1-4)[Fuc(a1-3)]GlcNAc(b1-3)Gal(b1-4)[Fuc(a1-3)]GlcNAc
# Outline: as §1
# [36] = biological target: Neu5Ac(a2-3)Gal(b1-4)[Fuc(a1-3)]GlcNAc6S
# Outline: as §1
# [37] = biological target: Neu5Ac(a2-3)Gal6S(b1-4)GlcNAc
# Outline: as §1
# [38] = biological target: Neu5Ac(a2-3)Gal6S(b1-4)[Fuc(a1-3)]GlcNAc
# Outline: as §1
# [39] = biological target: Neu5Ac(a2-3)GalNAc
# Outline: as §1
# [40] = biological target: Neu5Ac(a2-3)GalNAc(b1-4)GlcNAc
# Outline: as §1
# [41] = biological target: Neu5Ac(a2-3)[GalNAc(b1-4)]Gal(b1-4)Glc
# Outline: as §1
# [42] = biological target: Neu5Ac(a2-3)[GalNAc(b1-4)]Gal(b1-4)GlcNAc
# Outline: as §1
# [43] = biological target: Neu5Ac(a2-3)[Neu5Ac(a2-6)]GalNAc
# Outline: as §1
# [44] = biological target: Neu5Ac(a2-6)Gal
# Outline: as §1
# [45] = biological target: Neu5Ac(a2-6)Gal(b1-4)Glc
# Outline: as §1
# [46] = biological target: Neu5Ac(a2-6)Gal(b1-4)GlcNAc
# Outline: as §1
# [47] = biological target: Neu5Ac(a2-6)Gal(b1-4)GlcNAc(b1-3)Gal(b1-4)GlcNAc
# Outline: as §1
# [48] = biological target: Neu5Ac(a2-6)Gal(b1-4)GlcNAc(b1-3)Gal(b1-4)[Fuc(a1-3)]GlcNAc(b1-3)Gal(b1-4)[Fuc(a1-3)]GlcNAc
# Outline: as §1
# [49] = biological target: Neu5Ac(a2-6)Gal(b1-4)GlcNAc6S
# Outline: as §1
# [50] = biological target: Neu5Ac(a2-6)GalNAc
# Outline: as §1
# [51] = biological target: Neu5Ac(a2-6)GalNAc(b1-4)GlcNAc
# Outline: as §1
# [52] = biological target: Neu5Ac(a2-8)Neu5Ac
# Outline: as §1
# [53] = biological target: Neu5Ac(a2-8)Neu5Ac(a2-3)Gal(b1-4)Glc
# Outline: as §1
# [54] = biological target: Neu5Ac(a2-8)Neu5Ac(a2-3)[GalNAc(b1-4)]Gal(b1-4)Glc
# Outline: as §1
# [55] = biological target: Neu5Ac(a2-8)Neu5Ac(a2-8)Neu5Ac
# Outline: as §1
# [56] = biological target: Neu5Ac(a2-8)Neu5Ac(a2-8)Neu5Ac(a2-3)Gal(b1-4)Glc
# Outline: as §1
# [57] = biological target: Neu5Ac(a2-8)Neu5Ac(a2-8)Neu5Ac(a2-3)[GalNAc(b1-4)]Gal(b1-4)Glc
# Outline: as §1
# [58] = biological target: Neu5Ac(a2-8)Neu5Ac(a2-8)Neu5Ac(a2-8)Neu5Ac(a2-3)[GalNAc(b1-4)]Gal(b1-4)Glc
# Outline: as §1
# [59] = biological target: Neu5Ac(b1-6)GalNAc
# Outline: as §1
# [60] = biological target: Neu5Ac(b2-6)Gal(b1-4)GlcNAc
# Outline: as §1
# [61] = biological target: Neu5Ac9Ac(a2-6)Gal(b1-4)GlcNAc
# Outline: as §1
# [62] = biological target: Neu5Gc(a2-3)Gal(b1-3)GlcNAc
# Outline: as §1
# [63] = biological target: Neu5Gc(a2-3)Gal(b1-3)[Fuc(a1-4)]GlcNAc
# Outline: as §1
# [64] = biological target: Neu5Gc(a2-3)Gal(b1-4)Glc
# Outline: as §1
# [65] = biological target: Neu5Gc(a2-3)Gal(b1-4)GlcNAc
# Outline: as §1
# [66] = biological target: Neu5Gc(a2-3)Gal(b1-4)[Fuc(a1-3)]GlcNAc
# Outline: as §1
# [67] = biological target: Neu5Gc(a2-6)Gal(b1-4)GlcNAc
# Outline: as §1
# [68] = biological target: Neu5Gc(a2-6)GalNAc
# Outline: as §1
binder,measurement,setting,value
"RSVL (Crotalus atrox), P21963 (protein) NNCPLDWLPMNGLCYKIFNQLKTWEDAEMFCRKYKPGCHLASFHRYGESLEIAEYISDYHKGQENVWIGLRDKKKDFSWEWTDRSCTDYLTWDKNQPDHYQNKEFCVELVSLTGYRLWNDQVCESKDAFLCQCKF",glycan array binding signal (z-score),[1],-0.367
same,glycan array binding signal (z-score),[2],-0.366
same,glycan array binding signal (z-score),[3],-0.369
same,glycan array binding signal (z-score),[4],-0.367
same,glycan array binding signal (z-score),[5],-0.358
same,glycan array binding signal (z-score),[6],-0.365
same,glycan array binding signal (z-score),[7],-0.366
same,glycan array binding signal (z-score),[8],-0.359
same,glycan array binding signal (z-score),[9],-0.367
same,glycan array binding signal (z-score),[10],-0.367
same,glycan array binding signal (z-score),[11],-0.363
same,glycan array binding signal (z-score),[12],-0.365
same,glycan array binding signal (z-score),[13],-0.126
same,glycan array binding signal (z-score),[14],-0.37
same,glycan array binding signal (z-score),[15],-0.368
same,glycan array binding signal (z-score),[16],-0.35
same,glycan array binding signal (z-score),[17],-0.237
same,glycan array binding signal (z-score),[18],-0.363
same,glycan array binding signal (z-score),[19],-0.362
same,glycan array binding signal (z-score),[20],-0.367
same,glycan array binding signal (z-score),[21],-0.349
same,glycan array binding signal (z-score),[22],-0.361
same,glycan array binding signal (z-score),[23],-0.368
same,glycan array binding signal (z-score),[24],-0.363
same,glycan array binding signal (z-score),[25],-0.367
same,glycan array binding signal (z-score),[26],-0.349
same,glycan array binding signal (z-score),[27],-0.362
same,glycan array binding signal (z-score),[28],-0.365
same,glycan array binding signal (z-score),[29],-0.325
same,glycan array binding signal (z-score),[30],-0.367
same,glycan array binding signal (z-score),[31],-0.366
same,glycan array binding signal (z-score),[32],-0.337
same,glycan array binding signal (z-score),[33],-0.348
same,glycan array binding signal (z-score),[34],-0.365
same,glycan array binding signal (z-score),[35],-0.368
same,glycan array binding signal (z-score),[36],-0.345
same,glycan array binding signal (z-score),[37],-0.329
same,glycan array binding signal (z-score),[38],-0.37
same,glycan array binding signal (z-score),[39],-0.367
same,glycan array binding signal (z-score),[40],-0.342
same,glycan array binding signal (z-score),[41],-0.241
same,glycan array binding signal (z-score),[42],-0.365
same,glycan array binding signal (z-score),[43],-0.368
same,glycan array binding signal (z-score),[44],-0.367
same,glycan array binding signal (z-score),[45],-0.305
same,glycan array binding signal (z-score),[46],-0.366
same,glycan array binding signal (z-score),[47],-0.365
same,glycan array binding signal (z-score),[48],-0.368
same,glycan array binding signal (z-score),[49],-0.366
same,glycan array binding signal (z-score),[50],-0.314
same,glycan array binding signal (z-score),[51],-0.369
same,glycan array binding signal (z-score),[52],-0.367
same,glycan array binding signal (z-score),[53],-0.369
same,glycan array binding signal (z-score),[54],-0.358
same,glycan array binding signal (z-score),[55],-0.366
same,glycan array binding signal (z-score),[56],-0.366
same,glycan array binding signal (z-score),[57],-0.362
same,glycan array binding signal (z-score),[58],-0.367
same,glycan array binding signal (z-score),[59],-0.367
same,glycan array binding signal (z-score),[60],-0.301
same,glycan array binding signal (z-score),[61],-0.34
same,glycan array binding signal (z-score),[62],-0.365
same,glycan array binding signal (z-score),[63],-0.232
same,glycan array binding signal (z-score),[64],-0.365
same,glycan array binding signal (z-score),[65],-0.361
same,glycan array binding signal (z-score),[66],-0.369
same,glycan array binding signal (z-score),[67],-0.366
same,glycan array binding signal (z-score),[68],-0.366

# Reference: the supplement of paper PMC8728848
